Laboratory results taken from the supplement of paper PMC3334620.
Over roughly 33,000 sequences, “E-score (-0.5 to 0.5)” has its median near -0.032; the highest 2% begin near 0.36. The list shows a part of the results.

The sequences below were run against T1, Sko1 (UniProt Q02100) (assay: PBM E-score (8-mer binding enrichment) (E-score (-0.5 to 0.5)); higher = stronger / more preferred TF binding; most listed sequences are background and not binding sites). Conditions: protein concentration: 200 nM; construct: GST-full length.
T1 sequence: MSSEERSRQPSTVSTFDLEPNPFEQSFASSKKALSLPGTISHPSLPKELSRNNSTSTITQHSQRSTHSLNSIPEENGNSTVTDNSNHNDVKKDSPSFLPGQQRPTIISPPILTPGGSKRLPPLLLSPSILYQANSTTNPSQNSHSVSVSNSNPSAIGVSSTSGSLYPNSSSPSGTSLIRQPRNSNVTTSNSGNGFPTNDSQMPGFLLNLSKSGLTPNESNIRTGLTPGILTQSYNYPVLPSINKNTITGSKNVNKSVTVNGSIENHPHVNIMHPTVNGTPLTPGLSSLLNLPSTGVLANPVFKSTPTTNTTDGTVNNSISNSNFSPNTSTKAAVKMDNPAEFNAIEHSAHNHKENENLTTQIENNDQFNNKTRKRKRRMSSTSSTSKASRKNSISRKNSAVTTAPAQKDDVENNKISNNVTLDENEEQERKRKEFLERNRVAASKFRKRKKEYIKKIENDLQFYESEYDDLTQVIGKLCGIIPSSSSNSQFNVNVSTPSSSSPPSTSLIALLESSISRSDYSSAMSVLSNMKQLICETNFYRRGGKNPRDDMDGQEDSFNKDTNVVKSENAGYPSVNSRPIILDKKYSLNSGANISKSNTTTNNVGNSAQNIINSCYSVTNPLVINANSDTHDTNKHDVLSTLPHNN
Summary of the method: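 Using PURExpress in vitro transcription/translation, GST-tagged yeast transcription factors were made in full-length or DNA-binding-domain form. These were applied at about 100-200 nM to double-stranded universal all-10-mer Agilent arrays, and bound protein was detected with fluorescent anti-GST. Scans were normalised with masliner before the Universal PBM Analysis Suite assigned E-scores to ungapped eight-base words pooled with their reverse complements.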

In order of rising “PBM E-score” value:
1. GAGTCCCC  -0.405
2. CCATGCCC  -0.369
3. CCCACCGG  -0.358
4. AGCCCAGG  -0.331
5. CCCCTTTC  -0.318
6. CCACCATC  -0.309
7. CAGGCGGG  -0.289
8. CGCCTGTA  -0.286
9. CGGATAAG  -0.258
10. CATGGCCG  -0.258
11. CAAGAGAC  -0.257
12. CCTCCTCA  -0.248
13. GAGCAGGC  -0.247
14. ACAGCTGT  -0.245
15. ACTGCCCT  -0.232
16. ACTGGTCC  -0.224
17. CGACTGCG  -0.222
18. TCCAGACA  -0.215
19. ATGGTACC  -0.214
20. ACCGCTCC  -0.213
21. AGTCAACC  -0.212
22. AGAAGTCG  -0.2
23. ACCCCCGC  -0.194
24. CGGTGTAA  -0.193
25. CCTTGAGC  -0.191
26. ATGGAAGG  -0.191
27. AGCAGGAT  -0.186
28. AAGGAGGG  -0.182
29. AAGAGCGA  -0.182
30. GGGGTGCA  -0.175
31. AGCACGGC  -0.175
32. GACTTGTA  -0.168
33. AGGGCGCG  -0.166
34. AGCCCCGA  -0.159
35. GAACCTGC  -0.159
36. GGCTGCAC  -0.158
37. CGCCCGAA  -0.156
38. CGGTAACC  -0.155
39. GGGCCCAC  -0.154
40. CCCCACAC  -0.153
41. CGGCGAAA  -0.153
42. CAAACGGA  -0.151
43. CGGGCTGA  -0.151
44. AGCCGGGC  -0.148
45. GACAGGCA  -0.148
46. CGGGAGTA  -0.145
47. GAACAGAC  -0.145
48. AGGAGCCC  -0.142
49. GCAACAGC  -0.141
50. CCTCAGTC  -0.14
51. TGGGCTAA  -0.139
52. AAACAGGC  -0.138
53. CATACTGC  -0.138
54. CACAACGG  -0.136
55. TAGGCCAA  -0.131
56. TCGGCCGA  -0.13
57. GGTATAGA  -0.13
58. TGGTAGAA  -0.129
59. GGGATATA  -0.126
60. ATGAAGAG  -0.125
61. GGCATTAA  -0.124
62. CTACCTCC  -0.12
63. CCCTACCG  -0.116
64. ATCCGGAG  -0.107
65. CTTCGATC  -0.107
66. TATCGGCA  -0.103
67. ACAGTCAT  -0.102
68. GGAGAAAC  -0.101
69. CAGCCTGA  -0.0976
70. GATCCGTA  -0.0968
71. GATGCTTA  -0.0959
72. AGTGGCAC  -0.0955
73. AAACTCAG  -0.0861
74. ACTCGGAA  -0.0833
75. GAGACGCC  -0.0776
76. ATCGCTGA  -0.0744
77. CGCTCAAC  -0.0742
78. CCCATAAA  -0.0727
79. AAGTGAGG  -0.0716
80. ATCAAAGC  -0.062
81. GGAGAGAA  -0.0614
82. CCCCAATC  -0.0519
83. AACAGTCA  -0.0508
84. ACCCTAGT  -0.038
85. AACGGTCG  -0.0357
86. AAGCCGTC  -0.0334
87. ACAGGAGT  -0.0316
88. AACTGAGT  -0.0287
89. ACATTCGA  -0.027
90. GTGGGTAA  -0.0262
91. ACTGAAGT  -0.0247
92. ATCCAATC  -0.0196
93. GTTGGGAA  -0.0188
94. TCACCGGA  -0.0135
95. GCCATAGA  -0.012
96. AATCTCGA  -0.00957
97. AGCAATTC  -0.00484
98. GTGGGCTA  -0.00458
99. CATGTCTA  -0.00401
100. TTATGGAA  0.00806
101. CGCGGCGC  0.0106
102. AAATGCTC  0.0109
103. AAAAAGGC  0.012
104. GAAACTCA  0.0159
105. AAACCTTG  0.0199
106. ATCTTCTC  0.0221
107. ACTGTCAT  0.0228
108. ACTTAGAA  0.0244
109. CTTCAACA  0.0249
110. CGTGGCCC  0.0251
111. AATGGTGA  0.0269
112. AGACTTAA  0.0309
113. ACCAAATG  0.034
114. CGTCGCTC  0.0409
115. ACAACCGC  0.0415
116. AAAGTATT  0.0493
117. CTTCGAAA  0.0519
118. GCAATCCA  0.0586
119. AAGTCGAC  0.0592
120. CAAGAATA  0.0646
121. GTAACTCA  0.0667
122. AAGTATCT  0.0671
123. ATTCGATC  0.0679
124. ATTTCGAC  0.0685
125. AATCTTAA  0.071
126. ACCCATAC  0.0715
127. TACGCTGA  0.0719
128. GGAGGTGA  0.0757
129. ATGTGATG  0.0759
130. ACATAGAT  0.0762
131. GTTCAAAC  0.08
132. CACGCGCC  0.081
133. AATGGTAT  0.0827
134. GTGGATGA  0.0829
135. ACCGCTCA  0.0832
136. ACATGCAT  0.0832
137. GATGAAAA  0.0883
138. AGATTTAC  0.096
139. AAAAAAAG  0.0989
140. TCCATCAA  0.108
141. ATGCAAAC  0.108
142. AAAACACA  0.111
143. CGAAACAA  0.116
144. GTCAGAGA  0.116
145. AGACACGC  0.126
146. TAGCTACA  0.13
147. ACACTGCG  0.132
148. TGCACACA  0.135
149. AAAGTGCA  0.152
150. AATTTGAT  0.155
151. TAGCGAAA  0.16
152. GCGCAGAA  0.168
153. ATCATAAG  0.175
154. AGAAATAA  0.179
155. ATGTTTAC  0.18
156. CTTCTTAA  0.183
157. TAAAAGAA  0.184
158. AATAAATG  0.186
159. TTCAGCAA  0.194
160. ATTCCATA  0.208
161. CGTAGGAG  0.208
162. ATGACTCA  0.209
163. ACCATATA  0.214
164. ATAATAAT  0.214
165. ATAACTAA  0.221
166. AAGAACAA  0.231
167. AAACAATG  0.233
168. ACTTTTAC  0.246
169. ATCTACGC  0.256
170. ATTGACGA  0.326
171. GTCATGAC  0.392
172. CACGTCAG  0.462
